Reference: PubChem BioAssay (Tox21)
“And” between values parts separate entries of the source, which are not always exact repeats. Identical values can stand only once. Inconclusive means that the source gave no clear call. Such entries were picked first, then a sample of the others. For some assays here: Potencies of inconclusive entries are doubtful fits and often do not repeat. The source made the active and inactive calls. Unless noted, calls come from the whole dose curve; as a rule, active = well fitted curve in the direction sought with a large enough effect in the repeat runs; inconclusive = weak or mixed curves; inactive = no such curve, though single readings can be large; an effect the other way counts as inactive or inconclusive.

What was measured:
[1] = biological target: Peroxisome proliferator-activated receptor gamma (Homo sapiens) (UniProt P37231); test: qHTS assay to identify small molecule antagonists of the peroxisome proliferator-activated receptor gamma (PPARg) signaling pathway (AID 743191; calls by dose curve; note: nearly all actives have a fitted effect of over 30% in size); settings: HEK293H PPARg-UAS-bla, beta-lactamase ratio, antagonist, 17 h; ratio activity, negative = inhibition: at 62.6 µM (top of the series) unless noted
Procedure, shortened: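 GeneBLAzer PPARg UAS-bla HEK293H cells carrying a UAS-driven beta-lactamase reporter were plated at 3000 cells/well, preincubated 5 h at 37C, then given compound for 17 h at 37C; LiveBLAzer B/G FRET substrate was read after 1 h at room temperature.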

[2] = qHTS assay to identify small molecule antagonists of the peroxisome proliferator-activated receptor gamma (PPARg) signaling pathway - cell viability counter screen (AID 743194); settings: PPARg-bla HEK293H viability, CellTiter-Glo luminescence, 17 h, co-treated with 50 nM rosiglitazone; activity change, negative = cytotoxicity: at 62.6 µM (top of the series) unless noted; note: nearly all actives have a fitted effect of over 55% in size
Procedure, shortened: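 PPARg-UAS-bla HEK293H cells were plated, rested 5 h at 37 C, then treated with compounds plus rosiglitazone (50 nM final) for 17 h at 37 C; viability was then read by CellTiter-Glo luminescence after 30 min at room temperature.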

[3] = qHTS assay for small molecule activators of the heat shock response signaling pathway (AID 743210; active = well fitted activation curve with a large enough effect in the signal ratio in the repeat runs, with a control signal flat, not every such curve was filed as active; inconclusive = weak or mixed curves; the % refers to the signal ratio); settings: HeLa HSE-bla reporter, beta-lactamase ratio, 5 h; activation: at 62.6 µM (top of the series)
Procedure, shortened: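 HSE-bla HeLa cells (beta-lactamase reporter under heat shock response elements) were exposed to compounds for 5 h at 37 C, then loaded with LiveBLAzer B/G FRET substrate for 2.5 h at room temperature before fluorescence reading.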

[4] = qHTS assay to identify small molecule agonists of the peroxisome proliferator-activated receptor delta (PPARd) signaling pathway - cell viability counter screen (AID 743211); settings: PPARd-bla HEK293H viability, CellTiter-Glo luminescence, 17 h; activity change, negative = cytotoxicity: at 62.6 µM (top of the series); note: nearly all actives have a fitted effect of over 55% in size
Procedure, shortened: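 HEK293H PPARd-bla, 3000 cells/well; 5 h preincubation 37C/5% CO2; cpd in DMSO, 17 h 37C; B/G FRET substrate 2 h RT; CellTiter-Glo 30 min RT, luminescence.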

[5] = biological target: Peroxisome proliferator-activated receptor delta (Homo sapiens) (UniProt Q03181); test: qHTS assay to identify small molecule agonists of the peroxisome proliferator-activated receptor delta (PPARd) signaling pathway (AID 743212; calls by dose curve); settings: HEK293H PPARd-UAS-bla, beta-lactamase FRET ratio, 17 h; activation: at 62.6 µM (top of the series) unless noted
Procedure, shortened: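 GeneBLAzer PPARd UAS-bla HEK293H cells (beta-lactamase reporter under UAS control), plated and rested 5 h at 37 C, then exposed to compounds in DMSO at 37 C; LiveBLAzer B/G FRET substrate added, 2 h room temperature, fluorescence read.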

[6] = biological target: Peroxisome proliferator-activated receptor delta (Homo sapiens) (UniProt Q03181); test: qHTS assay to identify small molecule antagonists of the peroxisome proliferator-activated receptor delta (PPARd) signaling pathway (AID 743215; active = well fitted inhibition curve with a large enough effect in the signal ratio in the repeat runs, not every such curve was filed as active; inconclusive = weak or mixed curves, or effect the other way; inactive = no such curve, though single readings can be large or run the other way; the % refers to the signal ratio;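 note: cells stimulated with agonist L165041 at 300 nM final during compound exposure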; for ratio activity, negative = inhibition: % is set by controls: 0 for no effect and ±100 for the full control effect); settings: HEK293H PPARd-UAS-bla, beta-lactamase FRET ratio, antagonist, 17 h; ratio activity, negative = inhibition: at 62 µM (top of the series) unless noted
Procedure, shortened: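 Antagonist-mode beta-lactamase reporter screen: HEK293H cells with UAS-bla under PPARd control, stimulated by 300 nM L165041 (final) alongside test compound for 17 h at 37 C, then FRET fluorescence after 2 h substrate incubation.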

[7] = biological target: Bile acid receptor (Homo sapiens) (UniProt Q96RI1); test: qHTS assay to identify small molecule antagonists of the farnesoid-X-receptor (FXR) signaling pathway (AID 743217; active = well fitted inhibition curve with a large enough effect in the signal ratio in the repeat runs, not every such curve was filed as active; inconclusive = weak or mixed curves, or effect the other way; inactive = no such curve, though single readings can be large or run the other way; the % refers to the signal ratio); settings: HEK293T FXR-UAS-bla, beta-lactamase ratio, CDCA-stimulated, 16 h; activity change, negative = inhibition: at 62.6 µM (top of the series) unless noted
Procedure, shortened: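 Beta-lactamase reporter under UAS control in HEK 293T cells; compound exposure 16 h at 37 °C in the presence of chenodeoxycholic acid (50 uM final); signal from B/G FRET substrate after 2 h at room temperature.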

[8] = qHTS assay to identify small molecule agonists of the farnesoid-X-receptor (FXR) signaling pathway - cell viability counter screen (AID 743218); settings: FXR-bla HEK293T viability, CellTiter-Glo luminescence, 16 h; viability change, negative = cytotoxic: at 62.6 µM (top of the series) unless noted; note: nearly all actives have a fitted effect of over 45% in size
Procedure, shortened: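 In GeneBLAzer FXR-UAS-bla HEK 293T cells, compounds act for 16 h at 37 C. Cell viability is then scored in the reporter wells by CellTiter-Glo, 30 min at RT, luminescence.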

[9] = biological target: Vitamin D3 receptor (Homo sapiens) (UniProt P11473); test: qHTS assay to identify small molecule agonists of the vitamin D receptor (VDR) signaling pathway (AID 743222; calls by dose curve; for activation: % is set by controls: 0 for no effect and ±100 for the full control effect); settings: HEK293T VDR-UAS-bla, beta-lactamase FRET ratio, 16 h; activation: at 63.5 µM (top of the series) unless noted
Procedure, shortened: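 Agonist activity measured in VDR-bla reporter cells. Exposure 16 h, 37C, 5% CO2; detection by B/G FRET substrate, 2 h RT.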

[10] = biological target: Vitamin D3 receptor (Homo sapiens) (UniProt P11473); test: qHTS assay to identify small molecule antagonists of the vitamin D receptor (VDR) signaling pathway (AID 743223; active = well fitted inhibition curve with a large enough effect in the signal ratio in the repeat runs, not every such curve was filed as active; inconclusive = weak or mixed curves, or effect the other way; inactive = no such curve, though single readings can be large or run the other way; the % refers to the signal ratio); settings: VDR-UAS-bla HEK293T, beta-lactamase FRET ratio, 16 h; activity change, negative = inhibition: at 61 µM (top of the series) unless noted
Procedure, shortened: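 Antagonist mode uses 1alpha,25-dihydroxyvitamin D3 at 3 nM final as stimulus. VDR-bla cells receive compounds in DMSO, incubate 16 h at 37C, then a beta-lactamase FRET substrate for 2 h at room temperature before fluorescence measurement.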

[11] = qHTS assay for small molecule agonists of the antioxidant response element (ARE) signaling pathway (AID 743202; active = well fitted activation curve with a large enough effect in the signal ratio in the repeat runs, not every such curve was filed as active; inconclusive = weak or mixed curves, or effect the other way; inactive = no such curve, though single readings can be large or run the other way; the % refers to the signal ratio; for activation: % is set by controls: 0 for no effect and ±100 for the full control effect); settings: HepG2 ARE-bla reporter, beta-lactamase FRET, 16 h
Procedure, shortened: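 Read-out: LiveBLAzer B/G FRET substrate fluorescence after 2 h at room temperature, following 16 h compound treatment at 37 C of HepG2 cells carrying an ARE-driven beta-lactamase reporter.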

[12] = qHTS assay to identify small molecule antagonists of the peroxisome proliferator-activated receptor delta (PPARd) signaling pathway - cell viability counter screen (AID 743213); settings: PPARd-bla HEK293H viability, CellTiter-Glo luminescence, 17 h; viability change, negative = cytotoxic: at 62 µM (top of the series) unless noted; note: nearly all actives have a fitted effect of over 50% in size
Procedure, shortened: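 PPARd-bla HEK293H cells were treated with compounds plus agonist L165041 (300 nM final) for 17 h at 37 C. Viability was then read in the same wells by CellTiter-Glo luminescence after 30 min at room temperature.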

[13] = qHTS assay to identify small molecule antagonists of the farnesoid-X-receptor (FXR) signaling pathway - cell viability counter screen (AID 743221; active = well fitted cell-killing curve with a large enough effect in the repeat runs, not every such curve was filed as active; inconclusive = weak or mixed curves, or effect the other way; inactive = no such curve, though single readings can be large or run the other way; note: nearly all actives have a fitted effect of over 50% in size); settings: FXR-bla HEK293T viability, CellTiter-Glo luminescence, 16 h; activity change, negative = cytotoxicity: at 62.6 µM (top of the series)
Procedure, shortened: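 Luminescence from CellTiter-Glo measures cytotoxicity in GeneBLAzer FXR-UAS-bla HEK 293T cells. Cells were exposed to compounds with 50 uM chenodeoxycholic acid (final) for 16 h at 37 C, in wells also used for the reporter readout.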

[14] = qHTS assay to identify small molecule agonists of the vitamin D receptor (VDR) signaling pathway - cell viability counter screen (AID 743224); settings: VDR-bla HEK293T viability, CellTiter-Glo luminescence, 16 h; activity change, negative = cytotoxicity: at 62.6 µM (top of the series) unless noted; note: nearly all actives have a fitted effect of over 50% in size
Procedure, shortened: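 VDR-bla cell line, quantitative HTS format; 16 h compound incubation (37C, 5% CO2); ATP-based CellTiter-Glo luminescence measured in the reporter assay wells.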

[15] = qHTS assay to identify small molecule antagonists of the vitamin D receptor (VDR) signaling pathway - cell viability counter screen (AID 743225); settings: VDR-bla HEK293T viability, CellTiter-Glo luminescence, 16 h; viability change, negative = cytotoxic: at 61 µM (top of the series) unless noted; note: nearly all actives have a fitted effect of over 50% in size
Procedure, shortened: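 Read-out: CellTiter-Glo luminescence measured 30 min after reagent addition at room temperature. Cells were VDR-bla HEK 293T exposed 16 h at 37C, 5% CO2, to compound with 3 nM final calcitriol agonist.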

[16] = biological target: Bile acid receptor (Homo sapiens) (UniProt Q96RI1); test: qHTS assay to identify small molecule agonists of the farnesoid-X-receptor (FXR) signaling pathway (AID 743220; active = well fitted activation curve with a large enough effect in the signal ratio in the repeat runs, not every such curve was filed as active; inconclusive = weak or mixed curves, or effect the other way; the % refers to the signal ratio); settings: HEK293T FXR-UAS-bla, beta-lactamase FRET ratio, 16 h; activation: at 62.6 µM (top of the series) unless noted
Procedure, shortened: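 Beta-lactamase reporter under UAS control in GeneBLAzer FXR HEK 293T cells (5000/well) measured with LiveBLAzer FRET substrate after 2 h at room temperature. Compound exposure lasted 16 h at 37C.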
Potency is the fitted concentration of half-maximal effect; tags give direction and shape of the fitted curve or compound fluorescence and quenching.

UniProt P37231, sequence (P37231 whole entry, looked up): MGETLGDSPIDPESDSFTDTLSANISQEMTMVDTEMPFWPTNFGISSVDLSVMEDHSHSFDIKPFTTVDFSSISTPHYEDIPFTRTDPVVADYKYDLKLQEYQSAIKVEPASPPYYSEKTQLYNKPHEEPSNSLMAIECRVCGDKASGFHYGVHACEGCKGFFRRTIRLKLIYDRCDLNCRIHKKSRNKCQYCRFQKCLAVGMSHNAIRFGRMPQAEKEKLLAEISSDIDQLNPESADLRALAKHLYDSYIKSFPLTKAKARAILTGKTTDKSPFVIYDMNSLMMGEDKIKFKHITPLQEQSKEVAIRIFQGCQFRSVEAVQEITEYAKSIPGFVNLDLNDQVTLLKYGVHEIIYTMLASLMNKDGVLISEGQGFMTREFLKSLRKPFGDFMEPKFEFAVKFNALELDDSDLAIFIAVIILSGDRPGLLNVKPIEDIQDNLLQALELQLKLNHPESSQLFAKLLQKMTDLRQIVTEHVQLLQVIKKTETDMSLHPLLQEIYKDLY
UniProt Q03181, sequence (Q03181 whole entry, looked up): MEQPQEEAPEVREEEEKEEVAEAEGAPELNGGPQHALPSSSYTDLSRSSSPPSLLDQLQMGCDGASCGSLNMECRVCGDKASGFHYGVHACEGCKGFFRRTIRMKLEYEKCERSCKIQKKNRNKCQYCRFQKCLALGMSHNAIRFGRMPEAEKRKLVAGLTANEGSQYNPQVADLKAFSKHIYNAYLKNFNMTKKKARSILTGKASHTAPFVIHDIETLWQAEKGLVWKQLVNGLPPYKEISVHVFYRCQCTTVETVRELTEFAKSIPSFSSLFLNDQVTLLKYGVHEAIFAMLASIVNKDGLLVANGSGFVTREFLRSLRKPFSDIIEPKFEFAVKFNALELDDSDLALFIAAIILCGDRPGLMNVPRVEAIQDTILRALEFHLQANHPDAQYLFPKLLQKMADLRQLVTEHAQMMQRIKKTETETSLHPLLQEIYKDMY
UniProt Q96RI1, sequence (Q96RI1 whole entry, looked up): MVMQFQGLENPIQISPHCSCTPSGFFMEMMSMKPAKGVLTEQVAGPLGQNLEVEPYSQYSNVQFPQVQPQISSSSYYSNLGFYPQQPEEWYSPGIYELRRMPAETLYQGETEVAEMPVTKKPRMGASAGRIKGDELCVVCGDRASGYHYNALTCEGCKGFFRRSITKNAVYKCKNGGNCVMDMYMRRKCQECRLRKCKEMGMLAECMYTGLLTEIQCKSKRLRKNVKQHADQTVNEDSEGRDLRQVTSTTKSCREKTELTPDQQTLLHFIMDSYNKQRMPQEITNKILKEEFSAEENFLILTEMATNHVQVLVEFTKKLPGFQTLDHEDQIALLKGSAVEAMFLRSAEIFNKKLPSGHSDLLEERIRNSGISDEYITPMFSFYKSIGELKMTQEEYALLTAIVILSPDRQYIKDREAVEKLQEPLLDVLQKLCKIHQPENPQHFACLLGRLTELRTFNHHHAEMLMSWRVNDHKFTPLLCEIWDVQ
UniProt P11473, sequence (P11473 whole entry, looked up): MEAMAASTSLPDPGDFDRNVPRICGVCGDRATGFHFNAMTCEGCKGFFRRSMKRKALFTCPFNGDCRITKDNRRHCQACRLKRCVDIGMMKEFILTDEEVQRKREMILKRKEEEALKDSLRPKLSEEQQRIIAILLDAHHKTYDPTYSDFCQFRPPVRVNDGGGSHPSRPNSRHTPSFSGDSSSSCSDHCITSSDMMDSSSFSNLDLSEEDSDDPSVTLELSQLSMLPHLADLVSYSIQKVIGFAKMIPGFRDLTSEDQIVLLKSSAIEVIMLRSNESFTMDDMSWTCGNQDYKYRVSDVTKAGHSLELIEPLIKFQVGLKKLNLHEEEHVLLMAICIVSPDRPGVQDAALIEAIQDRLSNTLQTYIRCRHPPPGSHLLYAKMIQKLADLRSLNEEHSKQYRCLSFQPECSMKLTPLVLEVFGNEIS

| Compound | Potency [1] | Potency [2] | Potency [3] | Potency [4] | Potency [5] | ratio activity, negative = inhibition [6] | Potency [7] | Potency [8] | activation [9] | Potency [10] | activation ([11]; at 73.3 µM (top of the series)) | activation ([11]; at 94.8 µM (top of the series)) | Potency [12] | Potency [13] | Potency [9] | Potency [14] | Potency [15] | Potency ([11]; activation: at 73.3 µM (top of the series) unless noted) | Potency [6] | Potency [16] |
| --- | --- | --- | --- | --- | --- | --- | --- | --- | --- | --- | --- | --- | --- | --- | --- | --- | --- | --- | --- | --- |
| Cc1ccc(-n2[nH]c(C)c(N=Nc3cccc(-c4cccc(C(=O)O)c4)c3O)c2=O)cc1C | inconclusive: 29.8 µM [rising, partial curve, poor fit] | active: 2.37 µM | inconclusive: 31 µM | active: 26.6 µM | inconclusive: 26.6 µM [rising, partial curve, poor fit] | inconclusive: -32% | inconclusive: 11.9 µM [rising, partial curve] | inconclusive: 13.3 µM [cytotoxic, partial curve, poor fit] | inconclusive: -7.94% | inconclusive: 1.2 µM [inhibitor, partial curve, poor fit] |  |  |  |  |  |  |  |  |  |  |
| Cc1cc(Cc2cc(C)cc(C(C)(C)C)c2O)c(O)c(C(C)(C)C)c1 | inconclusive: 19.6 µM [inhibitor, partial curve] and inconclusive: 27.5 µM [cytotoxic, partial curve, poor fit] |  | inconclusive: 25.6 µM and inconclusive: 30.9 µM | active: 17.5 µM and active: 15.5 µM | inconclusive: 54.9 µM [falling, partial curve] |  |  | inconclusive: 12.4 µM [cytotoxic, partial curve] and active: 21.9 µM |  |  | inconclusive: -17.3% | inconclusive: -5.91% | active: 13.9 µM and active: 15.5 µM | inconclusive: 54.9 µM [falling, single point] | inconclusive: 24.5 µM [full curve] | active: 9.82 µM and active: 13.8 µM | active: 19.6 µM and active: 19.5 µM |  |  |  |
| Cc1cc(O)c2ccccc2c1O | inconclusive: 11.9 µM [rising, single point] |  | inconclusive: 24.6 µM |  | inconclusive: 26.6 µM [rising, partial curve, poor fit] |  | active: 16.8 µM | active: 13.3 µM | inconclusive: -21.2% | inconclusive: 8.49 µM [rising, partial curve] |  |  | active: 10.6 µM |  |  | active: 7.5 µM | active: 13.4 µM | inconclusive: 10.6 µM | active: 10.6 µM | inconclusive: 11.9 µM [fluorescent] |
